# Test results taken from the supplement of paper PMC8728848.
# This is one part of the list.
# B1: DrGRIFIN (Danio rerio), Q6DGJ1 (protein)
# chain: MTLRFEASCPDGLCPGWSVILKGETPPEASKFEINFLCDRDDRVAFHFNPRFTESDIICNSYMANRWGQEERCNHFPLGVEEPFQIEIYSDNDHFHVYIDKAKVMQYKHRVEDLKTITKLQVVNDVKISSLEITKKLFY
# Columns and labels:
# Assay in all cases: glycan array binding signal (z-score within array); higher = stronger binding
# Settings in all cases: glycan notation: IUPAC condensed, linker removed
# [1] = target: Neu5Ac(a2-3)Gal(b1-3)GlcNAc6S
# Summary of the method: (§1)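 Negative Z-scores can be read as non-binding. The Z-score is calculated within each array and then averaged across arrays of one protein sequence at different concentrations or buffers and across linkers. Arrays, 3228 in all, were curated from the Consortium for Functional Glycomics database and kept only where the protein sequence was available.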
# [2] = target: Neu5Ac(a2-3)Gal(b1-3)[Fuc(a1-4)]GlcNAc
# Summary of the method: as §1
# [3] = target: Neu5Ac(a2-3)Gal(b1-3)[Fuc(a1-4)]GlcNAc(b1-3)Gal(b1-3)[Fuc(a1-4)]GlcNAc
# Summary of the method: as §1
# [4] = target: Neu5Ac(a2-3)Gal(b1-3)[Fuc(a1-4)]GlcNAc(b1-3)Gal(b1-4)[Fuc(a1-3)]GlcNAc
# Summary of the method: as §1
# [5] = target: Neu5Ac(a2-3)Gal(b1-3)[GlcNAc(b1-6)]GalNAc
# Summary of the method: as §1
# [6] = target: Neu5Ac(a2-3)Gal(b1-3)[Neu5Ac(a2-6)]GalNAc
# Summary of the method: as §1
# [7] = target: Neu5Ac(a2-3)Gal(b1-3)[Neu5Ac(a2-6)]GlcNAc(b1-3)[Fuc(a1-3)[Gal(b1-4)]GlcNAc(b1-6)]Gal(b1-4)Glc
# Summary of the method: as §1
# [8] = target: Neu5Ac(a2-3)Gal(b1-3)]Neu5Ac(a2-3)Gal(b1-4)]GlcNAc
# Summary of the method: as §1
# Neu5Ac(a2-3)Gal(b1-4)Glc = target: Neu5Ac(a2-3)Gal(b1-4)Glc
# Summary of the method: as §1
# [9] = target: Neu5Ac(a2-3)Gal(b1-4)GlcNAc
# Summary of the method: as §1
# [10] = target: Neu5Ac(a2-3)Gal(b1-4)GlcNAc(b1-2)Man
# Summary of the method: as §1
# [11] = target: Neu5Ac(a2-3)Gal(b1-4)GlcNAc(b1-2)Man(a1-3)[GlcNAc(b1-4)][Neu5Ac(a2-3)Gal(b1-4)GlcNAc(b1-2)Man(a1-6)]Man(b1-4)GlcNAc(b1-4)GlcNAc
# Summary of the method: as §1
# [12] = target: Neu5Ac(a2-3)Gal(b1-4)GlcNAc(b1-2)Man(a1-3)[Neu5Ac(a2-3)Gal(b1-4)GlcNAc(b1-2)Man(a1-6)]Man(b1-4)GlcNAc(b1-4)GlcNAc
# Summary of the method: as §1
# [13] = target: Neu5Ac(a2-3)Gal(b1-4)GlcNAc(b1-2)Man(a1-3)[Neu5Ac(a2-3)Gal(b1-4)GlcNAc(b1-2)Man(a1-6)]Man(b1-4)GlcNAc(b1-4)[Fuc(a1-6)]GlcNAc
# Summary of the method: as §1
# [14] = target: Neu5Ac(a2-3)Gal(b1-4)GlcNAc(b1-2)Man(a1-3)[Neu5Ac(a2-6)Gal(b1-4)GlcNAc(b1-2)Man(a1-6)]Man(b1-4)GlcNAc(b1-4)GlcNAc
# Summary of the method: as §1
# [15] = target: Neu5Ac(a2-3)Gal(b1-4)GlcNAc(b1-2)[Neu5Ac(a2-3)Gal(b1-4)GlcNAc(b1-4)]Man(a1-3)[GlcNAc(b1-4)][Neu5Ac(a2-3)Gal(b1-4)GlcNAc(b1-2)[Neu5Ac(a2-3)Gal(b1-4)GlcNAc(b1-6)]Man(a1-6)]Man(b1-4)GlcNAc(b1-4)GlcNAc
# Summary of the method: as §1
# [16] = target: Neu5Ac(a2-3)Gal(b1-4)GlcNAc(b1-2)[Neu5Ac(a2-3)Gal(b1-4)GlcNAc(b1-4)]Man(a1-3)[GlcNAc(b1-4)][Neu5Ac(a2-3)Gal(b1-4)GlcNAc(b1-4)Man(a1-6)]Man(b1-4)GlcNAc(b1-4)GlcNAc
# Summary of the method: as §1
# [17] = target: Neu5Ac(a2-3)Gal(b1-4)GlcNAc(b1-2)[Neu5Ac(a2-3)Gal(b1-4)GlcNAc(b1-6)]Man(a1-6)[Neu5Ac(a2-3)Gal(b1-4)GlcNAc(b1-2)Man(a1-3)][GlcNAc(b1-4)]Man(b1-4)GlcNAc(b1-4)GlcNAc
# Summary of the method: as §1
# [18] = target: Neu5Ac(a2-3)Gal(b1-4)GlcNAc(b1-3)Gal
# Summary of the method: as §1
# [19] = target: Neu5Ac(a2-3)Gal(b1-4)GlcNAc(b1-3)Gal(b1-3)GlcNAc
# Summary of the method: as §1
# [20] = target: Neu5Ac(a2-3)Gal(b1-4)GlcNAc(b1-3)Gal(b1-4)GlcNAc
# Summary of the method: as §1
# [21] = target: Neu5Ac(a2-3)Gal(b1-4)GlcNAc(b1-3)Gal(b1-4)GlcNAc(b1-2)Man(a1-3)[Neu5Ac(a2-3)Gal(b1-4)GlcNAc(b1-3)Gal(b1-4)GlcNAc(b1-2)Man(a1-6)]Man(b1-4)GlcNAc(b1-4)GlcNAc
# Summary of the method: as §1
# [22] = target: Neu5Ac(a2-3)Gal(b1-4)GlcNAc(b1-3)Gal(b1-4)GlcNAc(b1-3)Gal(b1-4)GlcNAc
# Summary of the method: as §1
# [23] = target: Neu5Ac(a2-3)Gal(b1-4)GlcNAc(b1-3)Gal(b1-4)GlcNAc(b1-3)Gal(b1-4)GlcNAc(b1-2)Man(a1-3)[Neu5Ac(a2-3)Gal(b1-4)GlcNAc(b1-3)Gal(b1-4)GlcNAc(b1-3)Gal(b1-4)GlcNAc(b1-2)Man(a1-6)]GalNAc
# Summary of the method: as §1
# [24] = target: Neu5Ac(a2-3)Gal(b1-4)GlcNAc(b1-3)Gal(b1-4)GlcNAc(b1-3)GalNAc
# Summary of the method: as §1
# [25] = target: Neu5Ac(a2-3)Gal(b1-4)GlcNAc(b1-3)Gal(b1-4)GlcNAc(b1-3)[Neu5Ac(a2-3)Gal(b1-4)GlcNAc(b1-3)Gal(b1-4)GlcNAc(b1-6)]GalNAc
# Summary of the method: as §1
# [26] = target: Neu5Ac(a2-3)Gal(b1-4)GlcNAc(b1-3)Gal(b1-4)GlcNAc(b1-6)[Gal(b1-3)]GalNAc
# Summary of the method: as §1
# [27] = target: Neu5Ac(a2-3)Gal(b1-4)GlcNAc(b1-3)Gal(b1-4)[Fuc(a1-3)]GlcNAc
# Summary of the method: as §1
# [28] = target: Neu5Ac(a2-3)Gal(b1-4)GlcNAc(b1-3)GalNAc
# Summary of the method: as §1
# [29] = target: Neu5Ac(a2-3)Gal(b1-4)GlcNAc(b1-3)[Neu5Ac(a2-3)Gal(b1-4)GlcNAc(b1-6)]GalNAc
# Summary of the method: as §1
binder,measurement,setting,value
B1,glycan array binding signal (z-score),[1],-0.137
same,glycan array binding signal (z-score),[2],-0.149
same,glycan array binding signal (z-score),[3],-0.179
same,glycan array binding signal (z-score),[4],-0.229
same,glycan array binding signal (z-score),[5],-0.182
same,glycan array binding signal (z-score),[6],-0.164
same,glycan array binding signal (z-score),[7],-0.18
same,glycan array binding signal (z-score),[8],-0.072
same,glycan array binding signal (z-score),Neu5Ac(a2-3)Gal(b1-4)Glc,-0.199
same,glycan array binding signal (z-score),[9],-0.203
same,glycan array binding signal (z-score),[10],-0.16
same,glycan array binding signal (z-score),[11],-0.086
same,glycan array binding signal (z-score),[12],-0.141
same,glycan array binding signal (z-score),[13],-0.164
same,glycan array binding signal (z-score),[14],-0.211
same,glycan array binding signal (z-score),[15],-0.008
same,glycan array binding signal (z-score),[16],-0.145
same,glycan array binding signal (z-score),[17],-0.163
same,glycan array binding signal (z-score),[18],-0.158
same,glycan array binding signal (z-score),[19],-0.183
same,glycan array binding signal (z-score),[20],-0.177
same,glycan array binding signal (z-score),[21],-0.127
same,glycan array binding signal (z-score),[22],-0.196
same,glycan array binding signal (z-score),[23],-0.172
same,glycan array binding signal (z-score),[24],-0.198
same,glycan array binding signal (z-score),[25],-0.112
same,glycan array binding signal (z-score),[26],-0.206
same,glycan array binding signal (z-score),[27],-0.074
same,glycan array binding signal (z-score),[28],-0.151
same,glycan array binding signal (z-score),[29],-0.126
